For 167 variants, self-cleavage results are on record in the RNAGym collection of RNA variant scans (doi:10.7554/elife.90254).

The chains are these.
B1: LINE1-full (parent)
chain: UACGUAGGUGGUUUUCCCCUGAUAGUGCUAAGGGGGCCUGGAAGUUUGGACUGGGCAGAGCUCAACACAGCGUGGCAAAGUGGCUGUGGCUAGACUGCCUCUCUGGAUUCCUCGUCACUCAGCAGGGCAUCUCUGAGAGAAAUGCC

Read counts are not given, so values of variants with three or more changes are uncertain.

The data set covers variants of B1. In words: self-cleavage, relative activity (ratio to wild type); higher = more cleavage; in vitro, sequencing; the parent is a self-cleaving ribozyme.
In the case of A22U U62C A77G A138U, the self-cleavage came to 0. The same measure for U23C A78G U115A A121G C123A: 1.1; for U23A U39C A117G: 1.8; for A22U G88A A121G: 0.05. As for U23C A57U U96A A140G, the self-cleavage was 0.5.

Regarding A22G U45C A136U A138G, the self-cleavage stood at 0.34. Take U20C U130C U143G: the self-cleavage was found to be 2.41. The same measure for A22U U39C U130A: 1.24; for U23C A24C U91C: 1.84; for G21A G48A A117G A141G: 1.06. Regarding G21A U39A U47C A136G, the self-cleavage stood at 1.44.

With A22G G33A U81C U91C, the self-cleavage was found to be 0. The figure for A22G U46A A140G is 1.56; for A22G U62A A67G it is 0.08. The figure for A22G U87C U96C A141G C145U is 2.63; for U23A U91C C103U it is 0.42. The figure for A22U A50U A78G A94G G97U U119C is 0.08. Take A22G U45C A121G A136G: the self-cleavage worked out at 2.04. The figure for U23C U39C A64G U85G is 0.34; for U23C U26A C38A A129G it is 0.77. The figure for A22U A43G G80A is 1.62; for A22G G34A C37G it is 1.53; for G21A U87C U112C it is 0.1. The figure for U23C A43U C95A A117U is 0.06; for A22U U39A A78G A79U U102A it is 1.04.

For the variant A22G U62C U100A, the self-cleavage is 0.06. For A22G A79G C146A, the self-cleavage was found to be 0.82. The same measure for A22G U102C A124U: 1.93; for U23A A31G G33A U87C U115C: 0; for A22G A30G U46C A64U: 0.66. For the variant A22C U102C U130C, the self-cleavage stood at 1.28. The same measure for U23A U46C G58A G126A: 0.12; for A22G U62C C146U: 0.04; for A22G A141G A142U: 1.23. The same measure for U20C U130C A140U: 2.1. As for A22U U47C A78G, the self-cleavage came out at 1.33. The figure for A22G G55A A78G U102C A107U is 0.31; for A22G A64U A121U it is 0.51. The figure for U20G A43G A138G is 0.66; for A22U A67U U119C it is 0.24.

With A22G U85A A124G A140G, the self-cleavage was 0.08.

With A22G U52C A124G, the self-cleavage was 0. The figure for A22G A43G U134A is 1.84; for A22U C28A A69G U81A U96G it is 0.1; for U20G A65C U102C it is 0.15. The same measure for U23C A129G A142G: 1.6; for G21A U23C A42U U81C U100C C131U: 0.24; for A22G A65G U115C: 0. The figure for U23A A30U A140G is 0.57. As for U20C U132C A140U, the self-cleavage amounted to 1.48. The same measure for A22U A57U C99U C113A: 0.01; for U23C G35A U46C U47C: 1.41; for U23C G32C A129U: 1.4.

Take A22G A43G G44A: the self-cleavage is 1.07.

With U23C A42U A94G U102C, the self-cleavage was 0. The figure for G21A A77U U102C is 0.63; for A22G A64G U112C U143C it is 0; for A22G U29C C128U it is 1.72. The same measure for A22U A24C A78G: 1.71; for A22G U29C A30G: 2.04; for U23C U81C U102A: 2.76.

On to A22G A79G A142G, for which the self-cleavage was determined as 1.07. The figure for U20G C90U U91A U108C U130A is 0.07; for U23C A43G U134A it is 1.27; for G21A G34U U47C U73G it is 0. As for U20G A107G U112C, the self-cleavage came to 0.64. Take U23C U26A G72U U130A: the self-cleavage stood at 1.63. The same measure for A22G U87A U119C A141G: 0.13. Regarding A22G A69G G127A, the self-cleavage worked out at 0.82. Take A22G G60U U73C A92G U100C U112C: the self-cleavage was 0. The same measure for U23C U87C A136G: 0.44; for U23A U81C U112C A141G: 2.8. The same measure for A22G A31G U115C: 2.12. The figure for U20G G32A A69U A142G is 0.12. With A22G U39C A69G U109C, the self-cleavage came out at 0. The same measure for A22G C28U G55U A77G: 0.37; for U23C G114A U134C: 1.09; for U23C U26C A65U A67U U104C: 0.42. The figure for U23A U45A U47A U100C is 2.53; for U23C C90G A117U it is 0.09; for A22G A94G A129U A142U it is 0.15. On to A22G A57G G70A, for which the self-cleavage was determined as 0.09.

Take U23C U102A G139U: the self-cleavage turned out to be 1.6. The same measure for A22G U47A U85C A129G: 0.63; for A22G U39C U102C U132A U143C: 2.16. In the case of A22G U29C A117G, the self-cleavage came out at 0.55. The same measure for G21A U45C U52A A94U U115C A141G: 0.16; for A22G G40A A50G A138U: 0.89; for G21A A65G C99U A142G: 0.08. The same measure for A22G G135A A140G: 0.96; for U23C U102C A141G A142G: 2.3.

U23C A124G U134C: the self-cleavage was found to be 2.39. The same measure for A22U G89A U119C A124G: 0.04; for A22U A24U A57U: 0.13. With U23C C90A U115A, the self-cleavage stood at 0.02. The same measure for A22U A57U A94G: 0.18; for U23C U81A U143A: 1.72.

On to A22G U39A U73A C103U U130A, for which the self-cleavage is 1.88. On to A22U U47C U102C A117U, for which the self-cleavage was 2.16. The figure for A22G U39A A43G U73C is 0.33; for U23C U87A A94G it is 0.27. With A22G G82A U85C A124G, the self-cleavage is 0.4. The figure for A22U A92G U96C is 0.25. Consider A22U A65G A77G U104A, for which the self-cleavage turned out to be 0.

Regarding A22G C63U A64G A140G, the self-cleavage came out at 0.12. The figure for A22G U39C A78G U102C is 0.

With A22G G36A U73C, the self-cleavage worked out at 1.11. The figure for A22G U46C G125U is 0.94; for G21A U100A A138C it is 0.64. Regarding U23C A24G A30G, the self-cleavage turned out to be 0. The same measure for A22U A24G U102A: 2.08. The figure for A22U U96C U134A is 0.04; for G21A A24U U130A it is 1.37.

In the case of A22G A59G C63U A67U A121G A136G, the self-cleavage is 0.24. The figure for A22G A57C U104A U112C is 0; for U23C A57G G60A U130A it is 0. The figure for A22G U62A U96C U102A A140G is 0.09; for U23C U45A U52A U132C it is 1.71. Regarding A22G C128G A138G, the self-cleavage was 1.34. The figure for A22U A24G U109A is 1.51; for A22U A57G U85C it is 0; for U23C A64G U87A A129G it is 0.25. As to A22C A43G U104A U112C C116U A121C, the self-cleavage was 0.48.

Regarding U23C U47A A65G A107G, the self-cleavage is 0.16. The figure for U23C A121G A141G is 2.3; for U23C U46C U132C it is 2.22. The figure for U23C A64U A94G is 0.

With A22G A69G A78G, the self-cleavage stood at 0.

In the case of A22C C71U U119C, the self-cleavage was 1.27. As for A22G A57U A79G, the self-cleavage was determined as 0.15. The figure for A22G U85C U115C is 1.53. For A22G A50G U73A U81G U119C A140G, the self-cleavage stood at 0.66. The figure for U20G A31U U47A U62C is 0.15.

As for A22U U26C U46A U73A U119A A141G, the self-cleavage was 1.27. The same measure for A22G G33U A141G: 1.39. The same measure for A22U U96C U102C U104C: 1.31; for U23C A67C C103A U109C U115A A136G: 0.

As for A22G A94G C120A, the self-cleavage turned out to be 0.6.

As to U23C A30U A92G, the self-cleavage is 0.16.

For A22G U96A A138G, the self-cleavage was determined as 0.3.

For U23A G74A G88A, the self-cleavage came out at 0.07. The same measure for U23C U47G A78G U85C: 0.77; for A22G U52C A77U: 1.98; for A22U U52C C63U: 0.45.

Consider A22U U73G U96C U112C, for which the self-cleavage came to 0.15.

For the variant A22G U81A U102C A141G, the self-cleavage came to 1.3. The figure for A22G U100C A124U is 2.07. A22G U45A A50U: the self-cleavage was 0.97. The figure for A22G G58A U85C is 0.17; for U23A A64G G89A U100C G139A it is 0.16; for U23C G35U A79G U109C A140G it is 0.73.

Take A22G U46C A64G U112A: the self-cleavage came out at 0.36.

G21A A94G U115C A129G: the self-cleavage is 0. Turning to A22G U73A U108C, the self-cleavage is 1.7. The same measure for A22G A65U C103U U109A: 0.13.

Turning to U23A U26C A138G, the self-cleavage was 0.15. The same measure for U23C U73A U85G U100C C110A U119C: 0.37; for G21A A57U A64U A67G: 0.05.

As to U23C A43G C68U C84U U100C A121G, the self-cleavage stood at 0.02.

For G21A A43G U45G, the self-cleavage came out at 1.38. On to A22G U45C U81A, for which the self-cleavage turned out to be 1.77.

Take G21A A30G C51A A69U G72A A138G: the self-cleavage is 0.08. The same measure for U23C U62A U109A: 0.07; for G21A U39C U100C: 2.07.

For A22G C38A A50U A92G U115A A124G, the self-cleavage stood at 0.27. The figure for U23C U47C G74A is 1.19.

A22G U87A U119C: the self-cleavage came out at 0.08.
